# Source: the supplement of paper PMC8728848
# Some of the results follow.
# What was measured:
# Experiment in all cases: glycan array binding signal (z-score within array); higher = stronger binding
# Settings in all cases: glycan notation: IUPAC condensed, linker removed
# [1] = target: Fuc(a1-2)Gal
# Summary of the method: (§1)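 Glycan array data were curated from 3228 arrays in the Consortium for Functional Glycomics database and kept only where the protein sequence was available. Glycan names were converted to IUPAC-condensed notation, and columns mapping to the same glycan were averaged. The binding signal is a within-array Z-score, averaged across arrays of the same protein sequence at different concentrations or buffers and across linkers. Negative Z-scores can be read as non-binding.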
# [2] = target: Fuc(a1-2)Gal(b1-3)GalNAc
# Summary of the method: as §1
# [3] = target: Fuc(a1-2)Gal(b1-3)GalNAc(a1-3)[Fuc(a1-2)]Gal(b1-4)Glc
# Summary of the method: as §1
# [4] = target: Fuc(a1-2)Gal(b1-3)GalNAc(a1-3)[Fuc(a1-2)]Gal(b1-4)GlcNAc
# Summary of the method: as §1
# [5] = target: Fuc(a1-2)Gal(b1-3)GalNAc(b1-3)Gal
# Summary of the method: as §1
# [6] = target: Fuc(a1-2)Gal(b1-3)GalNAc(b1-3)Gal(a1-4)Gal(b1-4)Glc
# Summary of the method: as §1
# [7] = target: Fuc(a1-2)Gal(b1-3)GalNAc(b1-4)[Neu5Ac(a2-3)]Gal(b1-4)Glc
# Summary of the method: as §1
# [8] = target: Fuc(a1-2)Gal(b1-3)GlcNAc
# Summary of the method: as §1
# [9] = target: Fuc(a1-2)Gal(b1-3)GlcNAc(b1-2)Man(a1-3)[Fuc(a1-2)Gal(b1-3)GlcNAc(b1-2)Man(a1-6)]Man(b1-4)GlcNAc(b1-4)GlcNAc
# Summary of the method: as §1
# [10] = target: Fuc(a1-2)Gal(b1-3)GlcNAc(b1-2)Man(a1-3)[Fuc(a1-2)Gal(b1-3)GlcNAc(b1-2)Man(a1-6)]Man(b1-4)GlcNAc(b1-4)[Fuc(a1-6)]GlcNAc
# Summary of the method: as §1
# [11] = target: Fuc(a1-2)Gal(b1-3)GlcNAc(b1-3)Gal(b1-4)Glc
# Summary of the method: as §1
# [12] = target: Fuc(a1-2)Gal(b1-3)GlcNAc(b1-3)GalNAc
# Summary of the method: as §1
# [13] = target: Fuc(a1-2)Gal(b1-3)GlcNAc(b1-3)[Fuc(a1-3)[Gal(b1-4)]GlcNAc(b1-6)]Gal(b1-4)Glc
# Summary of the method: as §1
# [14] = target: Fuc(a1-2)Gal(b1-3)GlcNAc(b1-3)[Gal(b1-4)GlcNAc(b1-6)]Gal(b1-4)Glc
# Summary of the method: as §1
# [15] = target: Fuc(a1-2)Gal(b1-3)GlcNAc(b1-3)[Neu5Ac(a2-6)Gal(b1-4)GlcNAc(b1-6)]Gal(b1-4)Glc
# Summary of the method: as §1
# [16] = target: Fuc(a1-2)Gal(b1-3)[Fuc(a1-4)]GlcNAc
# Summary of the method: as §1
# [17] = target: Fuc(a1-2)Gal(b1-3)[Fuc(a1-4)]GlcNAc(b1-2)Man(a1-3)[Fuc(a1-2)Gal(b1-3)[Fuc(a1-4)]GlcNAc(b1-2)Man(a1-6)]Man(b1-4)GlcNAc(b1-4)GlcNAc
# Summary of the method: as §1
# [18] = target: Fuc(a1-2)Gal(b1-3)[Fuc(a1-4)]GlcNAc(b1-3)[Fuc(a1-3)[Gal(b1-4)]GlcNAc(b1-6)]Gal(b1-4)Glc
# Summary of the method: as §1
# [19] = target: Fuc(a1-2)Gal(b1-3)[Fuc(a1-4)]GlcNAc(b1-3)[Gal(b1-4)GlcNAc(b1-6)]Gal(b1-4)Glc
# Summary of the method: as §1
# [20] = target: Fuc(a1-2)Gal(b1-4)Glc
# Summary of the method: as §1
# [21] = target: Fuc(a1-2)Gal(b1-4)Glc6S
# Summary of the method: as §1
# [22] = target: Fuc(a1-2)Gal(b1-4)GlcNAc
# Summary of the method: as §1
# [23] = target: Fuc(a1-2)Gal(b1-4)GlcNAc(b1-2)Man(a1-3)[Fuc(a1-2)Gal(b1-4)GlcNAc(b1-2)Man(a1-6)]Man(b1-4)GlcNAc(b1-4)GlcNAc
# Summary of the method: as §1
# [24] = target: Fuc(a1-2)Gal(b1-4)GlcNAc(b1-2)Man(a1-3)[Fuc(a1-2)Gal(b1-4)GlcNAc(b1-2)Man(a1-6)]Man(b1-4)GlcNAc(b1-4)[Fuc(a1-6)]GlcNAc
# Summary of the method: as §1
# [25] = target: Fuc(a1-2)Gal(b1-4)GlcNAc(b1-2)[Fuc(a1-2)Gal(b1-4)GlcNAc(b1-4)]Man(a1-3)[Fuc(a1-2)Gal(b1-4)GlcNAc(b1-2)Man(a1-6)]Man(b1-4)GlcNAc(b1-4)GlcNAc
# Summary of the method: as §1
# [26] = target: Fuc(a1-2)Gal(b1-4)GlcNAc(b1-3)Gal(b1-4)GlcNAc
# Summary of the method: as §1
# [27] = target: Fuc(a1-2)Gal(b1-4)GlcNAc(b1-3)Gal(b1-4)GlcNAc(b1-3)Gal(b1-4)GlcNAc
# Summary of the method: as §1
# [28] = target: Fuc(a1-2)Gal(b1-4)GlcNAc(b1-3)GalNAc
# Summary of the method: as §1
# [29] = target: Fuc(a1-2)Gal(b1-4)GlcNAc(b1-3)[Fuc(a1-2)Gal(b1-4)GlcNAc(b1-6)]GalNAc
# Summary of the method: as §1
# [30] = target: Fuc(a1-2)Gal(b1-4)GlcNAc6S
# Summary of the method: as §1
# [31] = target: Fuc(a1-2)Gal(b1-4)[Fuc(a1-3)]GlcNAc
# Summary of the method: as §1
# [32] = target: Fuc(a1-2)Gal(b1-4)[Fuc(a1-3)]GlcNAc(b1-2)Man(a1-3)[Fuc(a1-2)Gal(b1-4)[Fuc(a1-3)]GlcNAc(b1-2)Man(a1-6)]Man(b1-4)GlcNAc(b1-4)GlcNAc
# Summary of the method: as §1
# [33] = target: Fuc(a1-2)Gal(b1-4)[Fuc(a1-3)]GlcNAc(b1-2)[Fuc(a1-2)Gal(b1-4)[Fuc(a1-3)]GlcNAc(b1-4)]Man(a1-3)[Fuc(a1-2)Gal(b1-4)[Fuc(a1-3)]GlcNAc(b1-2)Man(a1-6)]Man(b1-4)GlcNAc(b1-4)GlcNAc
# Summary of the method: as §1
# [34] = target: Fuc(a1-2)Gal(b1-4)[Fuc(a1-3)]GlcNAc(b1-3)Gal(b1-4)[Fuc(a1-3)]GlcNAc
# Summary of the method: as §1
# [35] = target: Fuc(a1-2)Gal(b1-4)[Fuc(a1-3)]GlcNAc(b1-3)Gal(b1-4)[Fuc(a1-3)]GlcNAc(b1-3)Gal(b1-4)[Fuc(a1-3)]GlcNAc
# Summary of the method: as §1
# [36] = target: Fuc(a1-2)Gal(b1-4)[Fuc(a1-3)]GlcNAc(b1-3)GalNAc
# Summary of the method: as §1
# [37] = target: Fuc(a1-2)Gal6S(b1-4)Glc
# Summary of the method: as §1
binder,measurement,setting,value
"FedF (Escherichia coli), Q47212 (protein) MRLKYILIIPLLLISLSVFASTLQVDKSVSYDWINSSASSAQVTGTLLGTGKTNTTQMPALYTWQHQIYNVNFIPSSSGTLTCQAGTILVWKNGRETQYALECRVSIHHSSGSINESQWGQQSQVGFGTACGNKKCRFTGFEISLRIPPNAQTYPLSSGDLKGSFSLTNKEVNWSASIYVPAIAKSYRLDTSITLPDTVNLKQNQATPVYYTFSAPSVSNTITGIPNQNDMPSSNVKLTIGPIQSKTTALYVQPDATGSWYDLSKSITMTVVKSSMLNFKGINAKPGNVTLSVPIVFEIQ",glycan array binding signal (z-score),[1],-0.243
same,glycan array binding signal (z-score),[2],-0.259
same,glycan array binding signal (z-score),[3],-0.135
same,glycan array binding signal (z-score),[4],-0.195
same,glycan array binding signal (z-score),[5],0.555
same,glycan array binding signal (z-score),[6],-0.223
same,glycan array binding signal (z-score),[7],-0.129
same,glycan array binding signal (z-score),[8],-0.376
same,glycan array binding signal (z-score),[9],-0.179
same,glycan array binding signal (z-score),[10],-0.174
same,glycan array binding signal (z-score),[11],-0.21
same,glycan array binding signal (z-score),[12],0.118
same,glycan array binding signal (z-score),[13],-0.186
same,glycan array binding signal (z-score),[14],-0.157
same,glycan array binding signal (z-score),[15],-0.171
same,glycan array binding signal (z-score),[16],-0.383
same,glycan array binding signal (z-score),[17],0.147
same,glycan array binding signal (z-score),[18],-0.148
same,glycan array binding signal (z-score),[19],-0.152
same,glycan array binding signal (z-score),[20],-0.326
same,glycan array binding signal (z-score),[21],-0.123
same,glycan array binding signal (z-score),[22],-0.316
same,glycan array binding signal (z-score),[23],-0.189
same,glycan array binding signal (z-score),[24],-0.126
same,glycan array binding signal (z-score),[25],0.106
same,glycan array binding signal (z-score),[26],-0.446
same,glycan array binding signal (z-score),[27],0.368
same,glycan array binding signal (z-score),[28],-0.081
same,glycan array binding signal (z-score),[29],-0.078
same,glycan array binding signal (z-score),[30],-0.202
same,glycan array binding signal (z-score),[31],-0.141
same,glycan array binding signal (z-score),[32],-0.172
same,glycan array binding signal (z-score),[33],-0.059
same,glycan array binding signal (z-score),[34],-0.053
same,glycan array binding signal (z-score),[35],-0.224
same,glycan array binding signal (z-score),[36],0.222
same,glycan array binding signal (z-score),[37],-0.127
